# Assay results as given in the supplement of paper PMC8728848.
# Some of the results follow.
# B1: SSP1 (Sclerotinia sclerotiorum), XP_001584968 (protein)
# chain: MGSSHHHHHHSSGLVPRGSHMSLLTTELACTSAPDQVLHLFFQDGQNILEARSPDGGNVWTTQDTIIAKDGDYNGSSMTCYYVDKDANFDNQPSIHLLYMNKDKQLTEKVKRMKGDNPIWEDAKVPDEVRKGPEQYSKLTSGSFNQGTGWNPNGSQWAYFSASKDGKMGIVEIRRTPKDPWHTETILEEKWGDELPGTALACVIGNGKIRVFLQHHDYSIILYENQNNTWHDRGTFIPKDKVQATTPLACTMTKDGSVHLFYVSKSNKIIHCTDGKKEEELINFFPGSKLGATSVENKITLFFRNLNPVNEVGTLENENGSWKHGTTVIPA
# Key:
# Assay in all cases: glycan array binding signal (z-score within array); higher = stronger binding
# Conditions in all cases: glycan notation: IUPAC condensed, linker removed
# [1] = target: GlcNAc(b1-4)GlcNAc(b1-4)GlcNAc(b1-4)GlcNAc(b1-4)GlcNAc
# Method in brief: (§1)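 Glycan array data were curated from 3228 arrays in the Consortium for Functional Glycomics database and kept only where the protein sequence was available. Glycan names were converted to IUPAC-condensed notation, and columns mapping to the same glycan were averaged. The binding signal is a within-array Z-score, averaged across arrays of the same protein sequence at different concentrations or buffers and across linkers. Negative Z-scores can be read as non-binding.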
# [2] = target: GlcNAc(b1-4)GlcNAc(b1-4)GlcNAc(b1-4)GlcNAc(b1-4)GlcNAc(b1-4)GlcNAc
# Method in brief: as §1
# [3] = target: GlcNAc(b1-4)[GlcNAc(b1-6)]GalNAc
# Method in brief: as §1
# [4] = target: GlcNAc(b1-6)Gal(b1-4)GlcNAc
# Method in brief: as §1
# GlcNAc(b1-6)GalNAc = target: GlcNAc(b1-6)GalNAc
# Method in brief: as §1
# [5] = target: GlcNAc6S(b1-3)Gal(b1-4)GlcNAc
# Method in brief: as §1
# Kdn(a2-3)Gal(b1-3)GalNAc = target: Kdn(a2-3)Gal(b1-3)GalNAc
# Method in brief: as §1
# Kdn(a2-3)Gal(b1-3)GlcNAc = target: Kdn(a2-3)Gal(b1-3)GlcNAc
# Method in brief: as §1
# Kdn(a2-3)Gal(b1-4)Glc = target: Kdn(a2-3)Gal(b1-4)Glc
# Method in brief: as §1
# Kdn(a2-3)Gal(b1-4)GlcNAc = target: Kdn(a2-3)Gal(b1-4)GlcNAc
# Method in brief: as §1
# [6] = target: Kdn(a2-3)Gal(b1-4)[Fuc(a1-3)]GlcNAc
# Method in brief: as §1
# Kdn(a2-6)Gal(b1-4)GlcNAc = target: Kdn(a2-6)Gal(b1-4)GlcNAc
# Method in brief: as §1
# [7] = target: Man(a1-2)Man(a1-2)Man(a1-3)Man
# Method in brief: as §1
# [8] = target: Man(a1-2)Man(a1-2)Man(a1-6)[Man(a1-3)]Man
# Method in brief: as §1
# Man(a1-2)Man(a1-3)Man = target: Man(a1-2)Man(a1-3)Man
# Method in brief: as §1
# [9] = target: Man(a1-2)Man(a1-3)[Man(a1-2)Man(a1-6)]Man
# Method in brief: as §1
# [10] = target: Man(a1-2)Man(a1-3)[Man(a1-2)Man(a1-6)]Man(a1-6)[Man(a1-2)Man(a1-2)Man(a1-3)]Man
# Method in brief: as §1
# [11] = target: Man(a1-2)Man(a1-3)[Man(a1-2)Man(a1-6)]Man(a1-6)[Man(a1-2)Man(a1-2)Man(a1-3)]Man(b1-4)GlcNAc(b1-4)GlcNAc
# Method in brief: as §1
# [12] = target: Man(a1-2)Man(a1-3)[Man(a1-6)]Man(a1-6)[Man(a1-2)Man(a1-3)]Man(b1-4)GlcNAc(b1-4)GlcNAc
# Method in brief: as §1
# [13] = target: Man(a1-2)Man(a1-6)[Man(a1-3)]Man(a1-6)[Man(a1-2)Man(a1-2)Man(a1-3)]Man
# Method in brief: as §1
# [14] = target: Man(a1-2)Man(a1-6)[Man(a1-3)]Man(a1-6)[Man(a1-2)Man(a1-2)Man(a1-3)]Man(b1-4)GlcNAc(b1-4)GlcNAc
# Method in brief: as §1
# Man(a1-3)[Man(a1-6)]Man = target: Man(a1-3)[Man(a1-6)]Man
# Method in brief: as §1
# [15] = target: Man(a1-3)[Man(a1-6)]Man(a1-6)[Man(a1-2)Man(a1-3)]Man(b1-4)GlcNAc(b1-4)GlcNAc
# Method in brief: as §1
# [16] = target: Man(a1-3)[Man(a1-6)]Man(a1-6)[Man(a1-3)]Man
# Method in brief: as §1
# [17] = target: Man(a1-3)[Man(a1-6)]Man(a1-6)[Man(a1-3)]Man(b1-4)GlcNAc(b1-4)GlcNAc
# Method in brief: as §1
# [18] = target: Man(a1-3)[Man(a1-6)]Man(b1-4)GlcNAc(b1-4)GlcNAc
# Method in brief: as §1
# [19] = target: Man(a1-3)[Man(a1-6)]Man(b1-4)GlcNAc(b1-4)[Fuc(a1-6)]GlcNAc
# Method in brief: as §1
# Man(a1-6)Man = target: Man(a1-6)Man
# Method in brief: as §1
# Man(b1-4)GlcNAc = target: Man(b1-4)GlcNAc
# Method in brief: as §1
# MurNAc(b1-4)GlcNAc = target: MurNAc(b1-4)GlcNAc
# Method in brief: as §1
# Neu5Ac(a2-3)Gal = target: Neu5Ac(a2-3)Gal
# Method in brief: as §1
# [20] = target: Neu5Ac(a2-3)Gal(b1-3)GalNAc
# Method in brief: as §1
# [21] = target: Neu5Ac(a2-3)Gal(b1-3)GalNAc(b1-3)Gal(a1-4)Gal(b1-4)Glc
# Method in brief: as §1
# [22] = target: Neu5Ac(a2-3)Gal(b1-3)GalNAc(b1-4)[Neu5Ac(a2-3)]Gal(b1-4)Glc
# Method in brief: as §1
# [23] = target: Neu5Ac(a2-3)Gal(b1-3)GalNAc(b1-4)[Neu5Ac(a2-8)Neu5Ac(a2-3)]Gal(b1-4)Glc
# Method in brief: as §1
# [24] = target: Neu5Ac(a2-3)Gal(b1-3)GalNAc6S
# Method in brief: as §1
# [25] = target: Neu5Ac(a2-3)Gal(b1-3)GlcNAc
# Method in brief: as §1
# [26] = target: Neu5Ac(a2-3)Gal(b1-3)GlcNAc(b1-2)Man
# Method in brief: as §1
# [27] = target: Neu5Ac(a2-3)Gal(b1-3)GlcNAc(b1-2)Man(a1-3)[GlcNAc(b1-4)][Neu5Ac(a2-3)Gal(b1-3)GlcNAc(b1-2)Man(a1-6)]Man(b1-4)GlcNAc(b1-4)GlcNAc
# Method in brief: as §1
# [28] = target: Neu5Ac(a2-3)Gal(b1-3)GlcNAc(b1-2)Man(a1-3)[Neu5Ac(a2-3)Gal(b1-3)GlcNAc(b1-2)Man(a1-6)]Man(b1-4)GlcNAc(b1-4)GlcNAc
# Method in brief: as §1
# [29] = target: Neu5Ac(a2-3)Gal(b1-3)GlcNAc(b1-3)Gal(b1-3)GlcNAc
# Method in brief: as §1
# [30] = target: Neu5Ac(a2-3)Gal(b1-3)GlcNAc(b1-3)Gal(b1-4)GlcNAc
# Method in brief: as §1
# [31] = target: Neu5Ac(a2-3)Gal(b1-3)GlcNAc(b1-3)GalNAc
# Method in brief: as §1
# [32] = target: Neu5Ac(a2-3)Gal(b1-3)GlcNAc(b1-4)Gal(b1-4)Glc
# Method in brief: as §1
# [33] = target: Neu5Ac(a2-3)Gal(b1-3)GlcNAc(b1-6)GalNAc
# Method in brief: as §1
binder,measurement,setting,value
B1,glycan array binding signal (z-score),[1],-0.531
same,glycan array binding signal (z-score),[2],-0.484
same,glycan array binding signal (z-score),[3],-0.1
same,glycan array binding signal (z-score),[4],0.09
same,glycan array binding signal (z-score),GlcNAc(b1-6)GalNAc,-0.231
same,glycan array binding signal (z-score),[5],-0.09
same,glycan array binding signal (z-score),Kdn(a2-3)Gal(b1-3)GalNAc,0.859
same,glycan array binding signal (z-score),Kdn(a2-3)Gal(b1-3)GlcNAc,-0.469
same,glycan array binding signal (z-score),Kdn(a2-3)Gal(b1-4)Glc,-0.148
same,glycan array binding signal (z-score),Kdn(a2-3)Gal(b1-4)GlcNAc,0.177
same,glycan array binding signal (z-score),[6],-0.409
same,glycan array binding signal (z-score),Kdn(a2-6)Gal(b1-4)GlcNAc,-0.024
same,glycan array binding signal (z-score),[7],-0.625
same,glycan array binding signal (z-score),[8],-0.199
same,glycan array binding signal (z-score),Man(a1-2)Man(a1-3)Man,0.114
same,glycan array binding signal (z-score),[9],-0.556
same,glycan array binding signal (z-score),[10],-0.323
same,glycan array binding signal (z-score),[11],0.327
same,glycan array binding signal (z-score),[12],-0.017
same,glycan array binding signal (z-score),[13],-0.279
same,glycan array binding signal (z-score),[14],-0.467
same,glycan array binding signal (z-score),Man(a1-3)[Man(a1-6)]Man,-0.264
same,glycan array binding signal (z-score),[15],-0.598
same,glycan array binding signal (z-score),[16],2.15
same,glycan array binding signal (z-score),[17],0.706
same,glycan array binding signal (z-score),[18],-0.468
same,glycan array binding signal (z-score),[19],-0.158
same,glycan array binding signal (z-score),Man(a1-6)Man,0.377
same,glycan array binding signal (z-score),Man(b1-4)GlcNAc,-0.027
same,glycan array binding signal (z-score),MurNAc(b1-4)GlcNAc,-0.452
same,glycan array binding signal (z-score),Neu5Ac(a2-3)Gal,-0.002
same,glycan array binding signal (z-score),[20],-0.148
same,glycan array binding signal (z-score),[21],-0.151
same,glycan array binding signal (z-score),[22],-0.498
same,glycan array binding signal (z-score),[23],-0.433
same,glycan array binding signal (z-score),[24],-0.392
same,glycan array binding signal (z-score),[25],-0.043
same,glycan array binding signal (z-score),[26],-0.068
same,glycan array binding signal (z-score),[27],-0.384
same,glycan array binding signal (z-score),[28],-0.603
same,glycan array binding signal (z-score),[29],-0.583
same,glycan array binding signal (z-score),[30],-0.218
same,glycan array binding signal (z-score),[31],0.031
same,glycan array binding signal (z-score),[32],-0.411
same,glycan array binding signal (z-score),[33],0.667
